Assay results: the supplement of paper PMC4967469
The IC50 comes from the fitted curve, where viability falls to half of the control; a limit (>, <) means that the fit lies beyond the doses tested. The AUC spans the tested range (256-fold, ending at the top dose) of the same fit; the more sensitive the line, the further below 1. For some of these results: Any top dose called inferred is not printed in the source and was worked back from the curve model. For some of these results: An entry number marks a drug with two screens in the source, which often give different values.

What was measured:
Experiment in all cases: Viability of human cancer cell lines after 72 h of drug (GDSC screen)
Epothilone B = compound: C/C(=C\c1csc(C)n1)[C@@H]1C[C@@H]2O[C@]2(C)CCC[C@H](C)[C@H](O)[C@@H](C)C(=O)C(C)(C)[C@@H](O)CC(=O)O1 [Epothilone B]; settings: top dose 0.032 µM; top dose inferred
Procedure: (§1)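 Human cancer cell lines in 384-well plates, medium with 10% serum, drug for 72 h over a 256-fold dose range (nine 2-fold or five 4-fold steps up to the top dose). Adherent lines were fixed and stained with the nucleic acid dye Syto60, suspension lines read with resazurin; signal relative to control wells, capped at 0 and 100%. One two-parameter sigmoid per drug and line, fitted in a mixed model over all curves with the slope shared within a line.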

PHA-793887 = compound: CC(C)CC(=O)Nc1n[nH]c2c1CN(C(=O)C1CCN(C)CC1)C2(C)C [PHA-793887]; settings: top dose 10.24 µM
Procedure: as §1

PLX4720 = compound: CCCS(=O)(=O)Nc1ccc(F)c(C(=O)c2c[nH]c3ncc(Cl)cc23)c1F [PLX4720]; settings: top dose 10 µM
Procedure: as §1

Y-39983 = compound: C[C@@H](N)c1ccc(C(=O)Nc2ccnc3[nH]ccc23)cc1 [Y-39983]; settings: top dose 20 µM; top dose inferred
Procedure: as §1

TPCA-1 = compound: NC(=O)Nc1sc(-c2ccc(F)cc2)cc1C(N)=O [TPCA-1]; settings: top dose 20 µM
Procedure: as §1

[1] = screen: GDSC drug entry 1371, top dose inferred

Cell Line | AUC (Epothilone B) | IC50 (Epothilone B) [µM] | AUC (PHA-793887) | IC50 (PHA-793887) [µM] | AUC (PLX4720; screen: GDSC drug entry 1036) | IC50 (PLX4720; screen: GDSC drug entry 1036) [µM] | AUC (PLX4720; [1]) | IC50 (PLX4720; [1]) [µM] | AUC (Y-39983) | IC50 (Y-39983) [µM] | AUC (TPCA-1) | IC50 (TPCA-1) [µM]
SCC-25 (head and neck, adherent) | 0.459 | 0.00152 | 0.828 | 7.47 | 0.984 | > 10 | 0.929 | > 10 | 0.973 | > 20 | 0.744 | 6.93
SF295 (glioma, adherent) | 0.448 | 0.00143 | 0.905 | > 10.2 | 0.922 | > 10 | 0.856 | 9.09 | 0.923 | > 20 | 0.95 | > 20
SISO (cervix, adherent) | 0.611 | 0.00398 | 0.922 | > 10.2 | 0.975 | > 10 | 0.97 | > 10 | 0.967 | > 20 | 0.89 | > 20
SJRH30 (rhabdomyosarcoma, adherent) | 0.782 | 0.0139 | 0.761 | 3.75 | 0.984 | > 10 | 0.967 | > 10 | 0.956 | > 20 | 0.958 | > 20
SK-CO-1 (large intestine, adherent) | 0.724 | 0.00827 | 0.989 | > 10.2 | 0.981 | > 10 | 0.979 | > 10 | 0.844 | 13.1 | 0.813 | 10
SK-HEP-1 (liver, adherent) | 0.426 | 0.00128 | 0.989 | > 10.2 | 0.883 | 9.44 | 0.899 | > 10 | 0.977 | > 20 | 0.794 | 8.51
SK-LU-1 (lung adenocarcinoma, adherent) | 0.546 | 0.00276 | 0.892 | > 10.2 | 0.887 | > 10 | 0.915 | > 10 | 0.958 | > 20 | 0.836 | 18.7
SK-MEL-3 (melanoma, adherent) | 0.749 | 0.0118 | 0.955 | > 10.2 | 0.781 | 4.85 | 0.766 | 4.24 | 0.984 | > 20 | 0.791 | 10.6
SK-MEL-24 (melanoma, adherent) | 0.962 | > 0.032 | 0.983 | > 10.2 |  |  | 0.649 | 1.77 | 0.96 | > 20 | 0.741 | 7.22
SK-MEL-28 (melanoma, adherent) | 0.971 | > 0.032 | 0.953 | > 10.2 | 0.538 | 0.794 | 0.661 | 1.74 | 0.981 | > 20 | 0.966 | > 20
SK-MEL-30 (melanoma, adherent) | 0.446 | 0.00141 | 0.785 | 4.64 | 0.947 | > 10 | 0.981 | > 10 | 0.96 | > 20 | 0.927 | > 20
SK-MES-1 (lung squamous cell carcinoma, adherent) | 0.458 | 0.00152 | 0.843 | 8.23 | 0.905 | > 10 | 0.912 | > 10 | 0.984 | > 20 | 0.844 | 16.2
SK-N-AS (neuroblastoma, adherent) | 0.979 | > 0.032 | 0.85 | 9.66 | 0.979 | > 10 | 0.982 | > 10 | 0.983 | > 20 | 0.889 | > 20
SK-N-SH (neuroblastoma, adherent) | 0.525 | 0.00234 | 0.987 | > 10.2 | 0.985 | > 10 | 0.979 | > 10 | 0.981 | > 20 | 0.845 | 14.2
SK-OV-3 (ovary, adherent) | 0.583 | 0.00359 | 0.814 | 7.44 | 0.975 | > 10 | 0.962 | > 10 | 0.883 | > 20 | 0.767 | 9.29
SKG-IIIa (cervix, adherent) | 0.846 | > 0.032 | 0.983 | > 10.2 | 0.961 | > 10 | 0.977 | > 10 | 0.983 | > 20 | 0.98 | > 20
SKN (uterus, adherent) | 0.684 | 0.00734 | 0.917 | > 10.2 | 0.884 | > 10 | 0.919 | > 10 | 0.875 | > 20 | 0.975 | > 20
SKN-3 (head and neck, adherent) | 0.917 | > 0.032 | 0.892 | > 10.2 | 0.923 | > 10 | 0.981 | > 10 | 0.952 | > 20 | 0.893 | > 20
SN12C (kidney, adherent) | 0.723 |  | 0.986 | > 10.2 |  |  | 0.984 | > 10 | 0.98 | > 20 | 0.947 | > 20
SNG-M (endometrium, adherent) | 0.279 | 0.00048 | 0.614 | 1.31 | 0.84 | 6.7 | 0.875 | 9.5 | 0.827 | 11.9 | 0.739 | 5.94
SNU-182 (liver, adherent) | 0.678 | 0.00646 | 0.962 | > 10.2 | 0.965 | > 10 | 0.947 | > 10 | 0.934 | > 20 | 0.839 | 14.6
SNU-387 (liver, adherent) | 0.657 | 0.00584 | 0.916 | > 10.2 | 0.966 | > 10 | 0.982 | > 10 | 0.835 | 15.8 | 0.856 | 19.7
SNU-398 (liver, adherent) | 0.136 | 0.000134 | 0.749 | 3.45 |  |  | 0.983 | > 10 | 0.933 | > 20 | 0.761 | 7.35

Cell Line | AUC (Epothilone B) | IC50 (Epothilone B) [µM] | AUC (PHA-793887) | IC50 (PHA-793887) [µM] | AUC (PLX4720; screen: GDSC drug entry 1036) | IC50 (PLX4720; screen: GDSC drug entry 1036) [µM] | AUC (PLX4720; [1]) | IC50 (PLX4720; [1]) [µM] | AUC (Y-39983) | IC50 (Y-39983) [µM] | AUC (TPCA-1) | IC50 (TPCA-1) [µM]
SNU-423 (liver, adherent) | 0.406 | 0.00106 | 0.848 | 9.62 | 0.982 | > 10 | 0.972 | > 10 | 0.772 | 9.06 | 0.849 | 19.1
SNU-449 (liver, adherent) | 0.462 | 0.00156 | 0.986 | > 10.2 | 0.946 | > 10 | 0.981 | > 10 | 0.915 | > 20 | 0.782 | 9.17
SU8686 (pancreas, adherent) | 0.722 | 0.00929 | 0.734 | 3.27 | 0.983 | > 10 | 0.907 | > 10 | 0.97 | > 20 | 0.967 | > 20
SU-DHL-5 (B-cell lymphoma, suspension) | 0.362 | 0.000921 | 0.244 | 0.149 | 0.993 | > 10 | 0.9 | 7.14 | 0.462 | 1.01 | 0.546 | 1.62
SUIT-2 (pancreas, adherent) | 0.462 | 0.00157 | 0.947 | > 10.2 | 0.985 | > 10 | 0.985 | > 10 | 0.86 | 18.2 | 0.444 | 0.873
SW13 (adrenal gland, adherent) | 0.631 | 0.00461 | 0.988 | > 10.2 | 0.986 | > 10 | 0.977 | > 10 | 0.988 | > 20 | 0.988 | > 20
SW48 (large intestine, adherent) | 0.644 | 0.00499 | 0.913 | > 10.2 | 0.986 | > 10 | 0.972 | > 10 | 0.911 | > 20 | 0.82 | 11.4
SW156 (kidney, adherent) | 0.751 | 0.0116 | 0.984 | > 10.2 |  |  | 0.957 | > 10 | 0.93 | > 20 | 0.897 | > 20
SW620 (large intestine, adherent) | 0.363 | 0.000879 | 0.613 | 1.26 | 0.99 | > 10 | 0.989 | > 10 | 0.958 | > 20 | 0.774 | 6.92
SW626 (ovary, adherent) | 0.493 | 0.00191 | 0.785 | 5.26 | 0.983 | > 10 | 0.981 | > 10 | 0.975 | > 20 | 0.857 | > 20
SW756 (cervix, adherent) | 0.836 | 0.0271 | 0.978 | > 10.2 | 0.985 | > 10 | 0.983 | > 10 | 0.969 | > 20 | 0.973 | > 20
SW780 (bladder, adherent) | 0.986 | > 0.032 | 0.968 | > 10.2 | 0.967 | > 10 | 0.881 | > 10 | 0.983 | > 20 | 0.949 | > 20
SW837 (large intestine, adherent) | 0.512 | 0.00217 | 0.901 | > 10.2 |  |  | 0.98 | > 10 | 0.982 | > 20 | 0.912 | > 20
SW900 (lung squamous cell carcinoma, adherent) | 0.765 | 0.0135 | 0.95 | > 10.2 | 0.911 | > 10 | 0.982 | > 10 | 0.977 | > 20 | 0.93 | > 20
SW948 (large intestine, adherent) | 0.773 | 0.0188 | 0.982 | > 10.2 | 0.977 | > 10 | 0.967 | > 10 | 0.934 | > 20 | 0.903 | > 20
SW1088 (glioma, adherent) | 0.632 | 0.00519 | 0.982 | > 10.2 |  |  | 0.907 | > 10 | 0.973 | > 20 | 0.945 | > 20
SW1271 (small cell lung carcinoma, adherent) | 0.656 | 0.00584 | 0.849 | 9.57 | 0.931 | > 10 | 0.958 | > 10 | 0.81 | 12.6 | 0.782 | 9.75
SW1417 (large intestine, adherent) | 0.952 | > 0.032 | 0.982 | > 10.2 | 0.924 | > 10 | 0.946 | > 10 | 0.986 | > 20 | 0.881 | > 20
SW1463 (large intestine, adherent) | 0.82 | > 0.032 | 0.978 | > 10.2 |  |  | 0.975 | > 10 | 0.978 | > 20 | 0.968 | > 20
SW1573 (lung adenocarcinoma, adherent) | 0.771 | 0.0167 | 0.93 | > 10.2 | 0.969 | > 10 | 0.953 | > 10 | 0.981 | > 20 | 0.972 | > 20
SW1710 (bladder, adherent) | 0.068 | < 0.000125 | 0.981 | > 10.2 | 0.946 | > 10 | 0.96 | > 10 | 0.441 | 0.856 | 0.796 | 9.67
SW1783 (glioma, adherent) | 0.454 | 0.00152 | 0.991 | > 10.2 | 0.99 | > 10 | 0.984 | > 10 | 0.981 | > 20 | 0.972 | > 20
SW1990 (pancreas, adherent) | 0.836 | 0.0268 | 0.951 | > 10.2 |  |  | 0.933 | > 10 | 0.985 | > 20 | 0.978 | > 20
